Experimental data taken from the supplement of paper PMC8728848.
Some of the results follow.

Tests used:
Assay in all cases: glycan array binding signal (z-score within array); higher = stronger binding
Conditions in all cases: glycan notation: IUPAC condensed, linker removed
[1] = molecular target: Neu5Ac(a2-8)Neu5Ac
Method in brief: (§1)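 The binding signal is a Z-score computed within each array and averaged over linkers. Arrays of the same protein sequence at different concentrations or buffers were also averaged together. Data originate from 3228 arrays in the Consortium for Functional Glycomics database, kept only where the protein sequence was available.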

[2] = molecular target: Neu5Ac(a2-8)Neu5Ac(a2-3)Gal(b1-3)GalNAc(b1-4)[Neu5Ac(a2-3)]Gal(b1-4)Glc
Method in brief: as §1

[3] = molecular target: Neu5Ac(a2-8)Neu5Ac(a2-3)Gal(b1-3)GalNAc(b1-4)[Neu5Ac(a2-8)Neu5Ac(a2-3)]Gal(b1-4)Glc
Method in brief: as §1

[4] = molecular target: Neu5Ac(a2-8)Neu5Ac(a2-3)Gal(b1-4)Glc
Method in brief: as §1

[5] = molecular target: Neu5Ac(a2-8)Neu5Ac(a2-3)Gal(b1-4)GlcNAc
Method in brief: as §1

[6] = molecular target: Neu5Ac(a2-8)Neu5Ac(a2-3)[Gal(b1-3)GalNAc(b1-4)]Gal(b1-4)Glc
Method in brief: as §1

[7] = molecular target: Neu5Ac(a2-8)Neu5Ac(a2-3)[GalNAc(b1-4)]Gal(b1-4)Glc
Method in brief: as §1

[8] = molecular target: Neu5Ac(a2-8)Neu5Ac(a2-8)Neu5Ac
Method in brief: as §1

[9] = molecular target: Neu5Ac(a2-8)Neu5Ac(a2-8)Neu5Ac(a2-3)Gal(b1-4)Glc
Method in brief: as §1

[10] = molecular target: Neu5Ac(a2-8)Neu5Ac(a2-8)Neu5Ac(a2-3)[Gal(b1-3)GalNAc(b1-4)]Gal(b1-4)Glc
Method in brief: as §1

[11] = molecular target: Neu5Ac(a2-8)Neu5Ac(a2-8)Neu5Ac(a2-3)[GalNAc(b1-4)]Gal(b1-4)Glc
Method in brief: as §1

[12] = molecular target: Neu5Ac(a2-8)Neu5Ac(a2-8)Neu5Ac(a2-8)Neu5Ac(a2-3)[GalNAc(b1-4)]Gal(b1-4)Glc
Method in brief: as §1

[13] = molecular target: Neu5Ac(a2-8)Neu5Gc(a2-3)Gal(b1-4)GlcNAc
Method in brief: as §1

[14] = molecular target: Neu5Ac(b2-6)Gal(b1-4)GlcNAc
Method in brief: as §1

[15] = molecular target: Neu5Ac(b2-6)GalNAc
Method in brief: as §1

[16] = molecular target: Neu5Ac9Ac(a2-3)Gal(b1-3)GlcNAc
Method in brief: as §1

[17] = molecular target: Neu5Ac9Ac(a2-3)Gal(b1-4)GlcNAc
Method in brief: as §1

[18] = molecular target: Neu5Ac9Ac(a2-6)Gal(b1-4)GlcNAc
Method in brief: as §1

[19] = molecular target: Neu5Gc(a2-3)Gal(b1-3)GlcNAc
Method in brief: as §1

[20] = molecular target: Neu5Gc(a2-3)Gal(b1-3)[Fuc(a1-4)]GlcNAc
Method in brief: as §1

[21] = molecular target: Neu5Gc(a2-3)Gal(b1-4)Glc
Method in brief: as §1

[22] = molecular target: Neu5Gc(a2-3)Gal(b1-4)GlcNAc
Method in brief: as §1

[23] = molecular target: Neu5Gc(a2-3)Gal(b1-4)GlcNAc(b1-3)Gal(b1-4)GlcNAc(b1-2)Man(a1-3)[Neu5Gc(a2-3)Gal(b1-4)GlcNAc(b1-3)Gal(b1-4)GlcNAc(b1-2)Man(a1-6)]Man(b1-4)GlcNAc(b1-4)GlcNAc
Method in brief: as §1

[24] = molecular target: Neu5Gc(a2-3)Gal(b1-4)[Fuc(a1-3)]GlcNAc
Method in brief: as §1

[25] = molecular target: Neu5Gc(a2-6)Gal(b1-4)GlcNAc
Method in brief: as §1

[26] = molecular target: Neu5Gc(a2-6)GalNAc
Method in brief: as §1

[27] = molecular target: Neu5Gc(a2-8)Neu5Ac(a2-3)Gal(b1-4)GlcNAc
Method in brief: as §1

[28] = molecular target: Neu5Gc(a2-8)Neu5Gc(a2-3)Gal(b1-4)GlcNAc
Method in brief: as §1

[29] = molecular target: Neu5Gc(a2-8)Neu5Gc(a2-3)Gal(b1-4)GlcNAc(b1-3)Gal(b1-4)GlcNAc
Method in brief: as §1

[30] = molecular target: Neu5Gc(a2-8)Neu5Gc(a2-6)Gal(b1-4)GlcNAc
Method in brief: as §1

[31] = molecular target: Neu5Gc(b2-6)Gal(b1-4)GlcNAc
Method in brief: as §1

B1: diCBM40 CPF071 (Clostridium perfringens) (protein)
chain: MAHHHHHHVGTGSNDDDDKSPDPMLSSLGEYKDINLESSNASNITYDLEKYKNLDEGTIVVRFNSKDSKIQSLLGISNSKTKNGYFNFYVTNSRVGFELRNQKNEGNTQNGTENLVHMYKDVALNDGDNTVALKIEKNKGYKLFLNGKMIKEVKDTNTKFLNNIENLDSAFIGKTNRYGQSNEYNFKGNIGFMNIYNEPLGDDYLLSKTGETKALNGSELGSGSGLSSLGEYKDINLESSNASNITYDLEKYKNLDEGTIVVRFNSKDSKIQSLLGISNSKTKNGYFNFYVTNSRVGFELRNQKNEGNTQNGTENLVHMYKDVALNDGDNTVALKIEKNKGYKLFLNGKMIKEVKDTNTKFLNNIENLDSAFIGKTNRYGQSNEYNFKGNIGFMNIYNEPLGDDYLLSKTGETK
[1]
  glycan array binding signal (z-score): -0.046
[2]
  glycan array binding signal (z-score): -0.2
[3]
  glycan array binding signal (z-score): -0.286
[4]
  glycan array binding signal (z-score): -0.24
[5]
  glycan array binding signal (z-score): -0.076
[6]
  glycan array binding signal (z-score): 0.004
[7]
  glycan array binding signal (z-score): -0.321
[8]
  glycan array binding signal (z-score): 0.019
[9]
  glycan array binding signal (z-score): 0.209
[10]
  glycan array binding signal (z-score): -0.251
[11]
  glycan array binding signal (z-score): -0.278
[12]
  glycan array binding signal (z-score): -0.326
[13]
  glycan array binding signal (z-score): -0.295
[14]
  glycan array binding signal (z-score): -0.286
[15]
  glycan array binding signal (z-score): -0.097
[16]
  glycan array binding signal (z-score): 1.26
[17]
  glycan array binding signal (z-score): 2.9
[18]
  glycan array binding signal (z-score): -0.299
[19]
  glycan array binding signal (z-score): 1
[20]
  glycan array binding signal (z-score): 0.647
[21]
  glycan array binding signal (z-score): -0.041
[22]
  glycan array binding signal (z-score): 3.31
[23]
  glycan array binding signal (z-score): 6.28
[24]
  glycan array binding signal (z-score): 0.856
[25]
  glycan array binding signal (z-score): -0.146
[26]
  glycan array binding signal (z-score): -0.044
[27]
  glycan array binding signal (z-score): -0.252
[28]
  glycan array binding signal (z-score): -0.326
[29]
  glycan array binding signal (z-score): -0.306
[30]
  glycan array binding signal (z-score): 0.22
[31]
  glycan array binding signal (z-score): -0.006
